Data taken from publication PMC4274898.
These are yes or no findings as the source states them, for the method shown. Some entries that bind do so weakly or less than the wild type.

By UniProt entry, the sequences of proteins in these tests, tags left out.
UniProt Q38825: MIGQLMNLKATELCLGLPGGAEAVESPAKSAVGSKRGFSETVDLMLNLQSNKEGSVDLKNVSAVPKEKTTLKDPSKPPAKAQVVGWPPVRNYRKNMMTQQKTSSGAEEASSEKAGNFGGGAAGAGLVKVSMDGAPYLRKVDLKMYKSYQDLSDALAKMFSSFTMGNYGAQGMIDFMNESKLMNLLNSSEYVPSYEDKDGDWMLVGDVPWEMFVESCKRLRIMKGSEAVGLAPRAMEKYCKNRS
UniProt P93830: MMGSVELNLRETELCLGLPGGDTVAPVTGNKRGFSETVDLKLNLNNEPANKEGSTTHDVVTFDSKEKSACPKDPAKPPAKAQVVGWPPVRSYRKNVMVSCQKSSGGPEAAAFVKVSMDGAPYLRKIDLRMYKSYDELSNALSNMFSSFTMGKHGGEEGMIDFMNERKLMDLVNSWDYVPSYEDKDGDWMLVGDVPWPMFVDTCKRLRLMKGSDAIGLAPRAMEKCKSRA
UniProt Q38832: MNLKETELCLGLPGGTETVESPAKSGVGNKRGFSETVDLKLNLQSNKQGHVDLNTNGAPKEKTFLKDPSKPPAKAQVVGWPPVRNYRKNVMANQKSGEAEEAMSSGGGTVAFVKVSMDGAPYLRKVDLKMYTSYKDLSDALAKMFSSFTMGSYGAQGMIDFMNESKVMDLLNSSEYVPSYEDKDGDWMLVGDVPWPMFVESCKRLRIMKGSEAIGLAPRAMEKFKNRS

Assays:
Assay in all cases: two-hybrid; S. cerevisiae AH109 co-transformed with pGBKT7-ARF (bait) and pGADT7-Aux/IAA (prey); growth on SD/-Ade-His-Leu-Trp against SD/-Leu/-Trp; at least 10 independent colonies; serial dilutions for strength
[1] = biological target: T1, ARF19 (Arabidopsis thaliana) (UniProt Q8RYC8)
T1 sequence: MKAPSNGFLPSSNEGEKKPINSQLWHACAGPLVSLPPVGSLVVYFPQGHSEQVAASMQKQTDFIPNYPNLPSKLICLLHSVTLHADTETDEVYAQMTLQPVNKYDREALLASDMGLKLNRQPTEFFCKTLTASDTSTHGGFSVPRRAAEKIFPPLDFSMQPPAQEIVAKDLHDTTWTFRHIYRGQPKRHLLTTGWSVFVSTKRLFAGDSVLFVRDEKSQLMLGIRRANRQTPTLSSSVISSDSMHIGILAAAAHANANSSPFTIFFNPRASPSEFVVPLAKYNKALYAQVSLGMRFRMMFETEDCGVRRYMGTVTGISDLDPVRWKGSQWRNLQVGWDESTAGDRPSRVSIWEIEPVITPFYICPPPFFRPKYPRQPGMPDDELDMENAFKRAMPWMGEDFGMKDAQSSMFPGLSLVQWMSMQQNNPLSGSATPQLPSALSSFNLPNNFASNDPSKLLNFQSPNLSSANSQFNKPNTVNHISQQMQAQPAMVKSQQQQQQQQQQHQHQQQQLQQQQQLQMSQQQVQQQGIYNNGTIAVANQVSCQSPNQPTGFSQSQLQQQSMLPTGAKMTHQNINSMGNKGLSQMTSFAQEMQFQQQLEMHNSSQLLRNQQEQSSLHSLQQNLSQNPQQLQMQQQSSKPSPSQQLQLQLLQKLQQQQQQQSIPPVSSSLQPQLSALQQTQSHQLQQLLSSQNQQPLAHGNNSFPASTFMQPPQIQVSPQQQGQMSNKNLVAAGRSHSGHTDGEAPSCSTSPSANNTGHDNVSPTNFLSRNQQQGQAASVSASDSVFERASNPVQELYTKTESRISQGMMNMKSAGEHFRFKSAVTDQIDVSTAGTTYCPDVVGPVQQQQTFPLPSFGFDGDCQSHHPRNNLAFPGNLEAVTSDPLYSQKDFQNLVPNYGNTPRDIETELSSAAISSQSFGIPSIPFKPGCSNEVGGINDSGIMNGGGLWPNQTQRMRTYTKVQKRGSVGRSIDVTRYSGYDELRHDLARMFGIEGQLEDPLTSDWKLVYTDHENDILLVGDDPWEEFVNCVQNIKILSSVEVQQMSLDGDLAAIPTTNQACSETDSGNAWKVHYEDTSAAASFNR

[2] = biological target: T2, ARF11 (Arabidopsis thaliana) (UniProt Q9ZPY6)
T2 sequence: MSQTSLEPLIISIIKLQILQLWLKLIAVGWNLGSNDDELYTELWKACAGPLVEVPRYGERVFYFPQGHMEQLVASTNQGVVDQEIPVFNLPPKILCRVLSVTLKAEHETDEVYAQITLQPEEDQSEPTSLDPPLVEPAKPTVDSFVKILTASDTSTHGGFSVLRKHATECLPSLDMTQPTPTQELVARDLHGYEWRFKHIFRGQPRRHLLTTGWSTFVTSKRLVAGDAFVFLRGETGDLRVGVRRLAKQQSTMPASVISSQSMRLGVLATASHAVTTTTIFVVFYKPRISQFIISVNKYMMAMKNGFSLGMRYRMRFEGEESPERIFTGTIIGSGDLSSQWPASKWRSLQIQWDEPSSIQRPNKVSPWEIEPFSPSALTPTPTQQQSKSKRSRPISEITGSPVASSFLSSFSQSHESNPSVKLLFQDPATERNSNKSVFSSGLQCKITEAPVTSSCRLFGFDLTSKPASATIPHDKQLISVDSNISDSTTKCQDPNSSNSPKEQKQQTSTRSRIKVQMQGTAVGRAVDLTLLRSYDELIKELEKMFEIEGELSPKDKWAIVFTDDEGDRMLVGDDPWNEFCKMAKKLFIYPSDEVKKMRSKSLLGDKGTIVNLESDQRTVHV

[3] = biological target: T3, ARF3 (Arabidopsis thaliana) (UniProt O23661)
T3 sequence: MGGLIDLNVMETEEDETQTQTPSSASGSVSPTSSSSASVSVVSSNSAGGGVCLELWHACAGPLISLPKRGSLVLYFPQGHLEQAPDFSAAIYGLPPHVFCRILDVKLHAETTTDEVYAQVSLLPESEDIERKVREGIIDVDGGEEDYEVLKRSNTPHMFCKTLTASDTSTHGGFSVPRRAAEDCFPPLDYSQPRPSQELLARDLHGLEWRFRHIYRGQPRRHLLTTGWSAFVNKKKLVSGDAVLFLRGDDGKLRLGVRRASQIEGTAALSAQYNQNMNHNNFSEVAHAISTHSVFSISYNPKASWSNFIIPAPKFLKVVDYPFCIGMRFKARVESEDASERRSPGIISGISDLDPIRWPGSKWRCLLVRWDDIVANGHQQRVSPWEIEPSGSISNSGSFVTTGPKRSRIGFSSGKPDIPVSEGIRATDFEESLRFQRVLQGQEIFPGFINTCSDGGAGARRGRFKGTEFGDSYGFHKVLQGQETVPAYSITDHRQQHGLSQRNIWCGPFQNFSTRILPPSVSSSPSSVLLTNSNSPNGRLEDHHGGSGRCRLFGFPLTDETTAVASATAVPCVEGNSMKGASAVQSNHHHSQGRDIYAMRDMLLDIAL

binding [1]	binding [2]	binding [3]	Substance
binds	no binding	no binding	Aux/IAA7 (from UniProt Q38825 1-243)
binds	no binding	no binding	Aux/IAA17 (from UniProt P93830 1-229)
binds	no binding	no binding	Aux/IAA14 (from UniProt Q38832 1-228)
